Like-named read-outs stand apart in the source and are kept apart here.
Legend:
[1] = Experimental Properties, calibration substances; cited from earlier work
[2] = Experimental Properties, calibration substances; cited from earlier work; remark: listed apart in the source
[3] = ABTS radical scavenging assay; conditions: for EC50: read-out: ABTS FRS50 ± SD
[4] = DPPH free-radical scavenging assay; conditions: read-out: DPPH FRS50 ± SD
[5] = target: T1, equine serum BuChE (EqBuChE) (Equus caballus, UniProt P81908); assay: biochemical
T1 construct: equine serum BuChE (EqBuChE); from tissue; host or cells: equine serum

[6] = target: T2, electric eel AChE (EeAChE) (Electrophorus electricus, UniProt O42275); conditions: IC50(BuChE)/IC50(AChE)
[7] = target: T2, electric eel AChE (EeAChE); assay: biochemical
[8] = system: CCL-110 cell line (normal, human fibroblasts derived from skin); assay: In vitro cytotoxicity assay (MTT) on CCL-110; conditions: positive control, pure methanol
SH-SY5Y cells [9] = assay: Neuroprotection against oxidative stress, H2O2, MTT; conditions: Homo sapiens, read-out: % cell viability
SH-SY5Y cells [10] = assay: Neuroprotection against rotenone/oligomycin A, co-incubation, MTT; conditions: R/O mixture, compound 0.001 µM
[11] = means ± SD of three independent experiments

T2 sequence (O42275 24-633): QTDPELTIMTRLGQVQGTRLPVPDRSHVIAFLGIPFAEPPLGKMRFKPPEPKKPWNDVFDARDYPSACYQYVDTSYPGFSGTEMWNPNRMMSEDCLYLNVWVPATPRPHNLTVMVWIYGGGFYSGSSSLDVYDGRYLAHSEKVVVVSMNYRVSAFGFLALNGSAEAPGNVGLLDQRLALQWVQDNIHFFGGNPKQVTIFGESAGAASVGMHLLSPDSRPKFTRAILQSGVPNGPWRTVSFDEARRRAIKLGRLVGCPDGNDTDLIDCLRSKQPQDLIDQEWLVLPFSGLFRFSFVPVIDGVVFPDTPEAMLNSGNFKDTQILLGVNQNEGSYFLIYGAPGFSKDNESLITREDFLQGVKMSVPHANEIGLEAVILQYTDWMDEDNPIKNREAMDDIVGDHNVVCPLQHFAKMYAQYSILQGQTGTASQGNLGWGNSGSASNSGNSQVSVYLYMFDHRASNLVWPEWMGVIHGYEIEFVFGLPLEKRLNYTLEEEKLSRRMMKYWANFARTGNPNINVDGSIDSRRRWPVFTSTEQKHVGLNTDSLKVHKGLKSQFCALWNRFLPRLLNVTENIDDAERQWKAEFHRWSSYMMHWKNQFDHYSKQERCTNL
T1 sequence (P81908 whole entry): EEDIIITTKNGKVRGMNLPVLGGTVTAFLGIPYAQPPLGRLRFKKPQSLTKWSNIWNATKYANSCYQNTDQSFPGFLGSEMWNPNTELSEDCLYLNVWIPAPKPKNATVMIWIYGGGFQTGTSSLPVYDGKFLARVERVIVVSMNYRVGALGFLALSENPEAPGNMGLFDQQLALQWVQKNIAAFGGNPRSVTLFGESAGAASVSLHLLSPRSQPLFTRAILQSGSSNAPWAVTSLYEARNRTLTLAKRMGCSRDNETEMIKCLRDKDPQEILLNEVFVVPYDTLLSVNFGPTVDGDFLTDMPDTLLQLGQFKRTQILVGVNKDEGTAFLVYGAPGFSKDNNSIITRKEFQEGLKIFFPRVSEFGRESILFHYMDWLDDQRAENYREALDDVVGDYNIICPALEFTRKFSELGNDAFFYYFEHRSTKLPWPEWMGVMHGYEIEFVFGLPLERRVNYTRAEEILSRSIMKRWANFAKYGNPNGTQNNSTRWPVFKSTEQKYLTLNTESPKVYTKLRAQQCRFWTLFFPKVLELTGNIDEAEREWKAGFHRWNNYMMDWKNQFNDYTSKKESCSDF

Row | Compound | EC50 [3] [mM] | EC50 [4] [mM] | Selectivity for AChE [6] | IC50 [7] [nM] | Selectivity for BuChE [5] | IC50 ([5]; read-out: BuChE IC50 ± SD) [nM] | other results
1 | CSc1ccc2c(c1)N(CCC1CCCCN1C)c1ccccc1S2.Cl (stereo not drawn) [Thiorydazine HCl] | – | – | – | – | – | – | logP [1]: 5.9; pKa [2]: 9.5 [20]
2 | CC(CN1c2ccccc2Sc2ccccc21)N(C)C.Cl (stereo not drawn) [Prometazine HCl] | – | – | – | – | – | – | pKa [2]: 9.1 [17]
3 | NC(=O)c1ccccc1O [Salicynamide] | – | – | – | – | – | – | logP [1]: 1.28; pKa [2]: 8.37 [18]
4 | Nc1c2c(nc3ccccc13)CCCC2 [THA, Tacrine, reference compound] | > 20 | > 20 | – | – | – | – | viability at 24 h, 10 µM (in vitro): 90%
5 | Cl.O=C(NCCNc1c2c(nc3ccccc13)CCC2)c1ccc(Cl)nc1 [Compound 3a, 6-chloro-N-[2-(2,3-dihydro-1H-cyclopenta[b]quinolin-9-ylamino)ethyl]pyridine-3-carboxamide hydrochloride] | 3.1 ± 0.18 | 14.3 ± 1.46 | 0.3 | 453 ± 18 | – | – | Selectivity for BuChE ([5]; IC50(AChE)/IC50(BuChE)): 3.6; IC50 [5, 11]: 124 ± 37 nM
6 | O=C(NCCCCCCCCCNc1c2c(nc3ccccc13)CCC2)c1ccc(Cl)nc1 [Compound 3h] | > 20 | > 20 | 1.3 | 71 ± 5 | 0.8 | 94 ± 6 | –
7 | O=C(NCCCCCCCCNc1c2c(nc3ccccc13)CCC2)c1ccc(Cl)nc1 [Compound 3g] | 4.8 ± 0.34 | > 20 | 0.6 | 73 ± 5 | – | 42 ± 6 | –
8 | CO [methanol, reference compound] | – | – | – | – | – | – | cells viability [8]: 22%
9 | Cl.O=C(NCCCNc1c2c(nc3ccccc13)CCC2)c1ccc(Cl)nc1 [Compound 3b, 6-chloro-N-[3-(2,3-dihydro-1H-cyclopenta[b]quinolin-9-ylamino)propyl]pyridine-3-carboxamide hydrochloride] | 1.9 ± 0.3 | > 20 | 2.5 | 245 ± 38 | – | – | Selectivity for BuChE ([5]; IC50(AChE)/IC50(BuChE)): 0.4; IC50 [5, 11]: 618 ± 43 nM; times less active than the reference compound (ABTS) ([3]; versus trolox): 48 times
10 | O=C(NCCCCCCCNc1c2c(nc3ccccc13)CCC2)c1ccc(Cl)nc1 [Compound 3f] | 10.5 ± 1.79 | > 20 | 0.8 | 74 ± 4 | 1.2 | 62 ± 3 | –
11 | O=C(NCCCCNc1c2c(nc3ccccc13)CCC2)c1ccc(Cl)nc1 [Compound 3c] | 3.6 ± 0.66 | > 20 | 1.1 | 589 ± 72 | 0.9 | 662 ± 53 | –
12 | Cc1c(C)c2c(c(C)c1O)CCC(C)(C(=O)O)O2 (stereo not drawn) [Trolox] | 0.04 ± 0.006 | 0.0049 ± 0.0004 | – | – | – | – | viability at 0.01 µM (SH-SY5Y cells [9]): 96.4%; viability at 0.1 µM (SH-SY5Y cells [9]): 98.6%; viability at 10 µM (SH-SY5Y cells [9]): 99.2%; neuroprotection (SH-SY5Y cells [10]): 5.60%
13 | O=C(NCCCCCNc1c2c(nc3ccccc13)CCC2)c1ccc(Cl)nc1 [Compound 3d] | 4.8 ± 0.66 | > 20 | 3.3 | 162 ± 18 | 0.3 | 534 ± 23 | –

— publication PMC6386991 (International Journal of Molecular Sciences, 2019)
